Screen size: about 48,000 compounds; about 120 (0.25%) were called active. Inconclusive results (about 4%) are left out. The call rests on the fitted dose curve; in most records, active means well fitted activation curve with a large enough effect; inconclusive means small, poorly fitted or top-dose-only effect, or another doubt; inactive means no such curve, though single readings can be large or run the other way. The list shows a part of the results.
Experiment: Primary qHTS for Identification of Small Molecule Activators of Huntingtin-Antisense Promoter Activity; further: nearly all actives have a fitted effect of over 55% in size
Settings: HEK293 HTT-AS promoter firefly luciferase reporter, 24 h; series mostly up to 57.5 µM; activity change, positive = activation: at the top concentration
In short: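 HEK293 Fluc reporter, 2,500 cells/well, 24 h pre-culture; cpds up to 57.5 uM final, 24 h 37 degrees C; Dual-Glo, 10 min RT; normalized vehicle = 0%, zero RLU = -100%.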

Activity change, positive = activation, inactive:
CCOC(=O)c1cnc2cc(C(F)(F)F)ccc2c1Nc1ccc(F)cc1F -12.7%, CCC(=O)N1CCc2cc(CNS(=O)(=O)c3cc(OC)ccc3OC)ccc21 -21.9%, O=C(c1ccc(F)cc1)c1cn(Cc2ccccc2F)c2cc3c(cc2c1=O)OCCO3 -9.39%, Cc1cccc(-c2nc(CN3CCCC(C(=O)N4CCN(c5cc(Cl)ccc5C)CC4)C3)c(C)o2)c1 (stereo unspecified) -37.4%, Cc1ccc(CSc2nc3cccnc3n2Cc2ccc(C(=O)NCc3ccco3)cc2)cc1 19.4%, Oc1ccc(Cl)cc1C1=Nc2ccccc2N=C(c2ccccc2)C1 -3.84%, COC(=O)CSc1ncc2c(n1)-c1ccccc1N(Cc1ccc(Cl)cc1)S2(=O)=O -15%, COc1ccc(CCn2c3c(c(=O)[nH]c2=O)C(NC(=O)c2ccc(Cl)cc2)(C(F)(F)F)C(=O)N3)cc1OC (stereo unspecified) 6.17%, COc1ccc(CNc2ncnc3c2nc2n3CCCC2)cc1 -15.2%, Cc1cccc(CNC(=O)Cn2c(-c3cccs3)cc3ccccc32)c1 -19.4%, Cc1cccc(OCC(=O)Nc2ccccc2C(=O)OCc2cc(=O)n3ccsc3n2)c1 12.7%, COc1cccc(NC(=O)CN2C(=O)c3cccc4cccc2c34)c1 -7.27% [at 11.5 µM, percent change from vehicle, -100% = no light], Cn1ncc2c(Nc3cc(C(F)(F)F)ccc3Cl)ncnc21 -3.14%, CC(NC(=O)c1ccc2c(c1)N(Cc1ccc(Cl)cc1)C(=O)CS2)c1ccccc1 (stereo unspecified) -17.1%, Cc1cn2c(-c3cn[nH]c3)cnc2c(Nc2ccc(C(=O)N3CCNCC3)cc2F)n1 -27.6%, O=C(NNC(=O)c1ccc(CNS(=O)(=O)c2ccc(F)c(Cl)c2)cc1)c1ccccc1 23.1%, CCN(c1cccc(C)c1)S(=O)(=O)c1cc(Br)cc2c1N(C(C)=O)C(C)C2 (stereo unspecified) -40.6%, CC1CCN(C(=O)CSc2n[nH]c(-c3ccc(F)cc3)n2)CC1 -14.9%, CC(C)OC(=O)c1ccc(Cn2nnc3sc4c(c3c2=O)CCCC4)cc1 -10.4%, COc1ccc2c(c1)c1c(c(=O)n(-c3ccccc3C)c(=O)n1Cc1cccc(C(F)(F)F)c1)n2C -31.4%, O=C(Cn1ccnc1[N+](=O)[O-])NCCO -2.84%, CCCN(c1c(C)n(C)n(-c2ccccc2)c1=O)S(=O)(=O)c1ccc(C)cc1 -18.2%, COc1ccc(C)cc1NC(=O)c1ccc(NS(=O)(=O)c2c(C)noc2C)cc1 -13%, CCC(C(=O)Nc1cccc(Cl)c1C)n1nc(C)c2sc3ccccc3c2c1=O (stereo unspecified) -8.96%, COc1ccc(-c2noc(CN(C)S(=O)(=O)c3c(C)cc(C)cc3C)n2)cc1OC -23%, CC(=O)N1c2ccccc2C(=O)C1N1CCN(c2ccccc2F)CC1 (stereo unspecified) -19%, CCOC(=O)c1ccc(NC2=CC(c3ccc(OCC)cc3)N(c3ccc(C(=O)OCC)cc3)C2=O)cc1 (stereo unspecified) -13.3%, CCOC(=O)c1cnc2cc(C(F)(F)F)ccc2c1Nc1cc(C)ccc1OC -4.27% [at 11.5 µM, percent change from vehicle, -100% = no light], Cc1ccc(-c2nc(CCNC(=O)c3ccc(C)c(C)c3)cs2)cc1 -24.9%, CC(C)(C)OC(=O)N1CCC(c2c(C(=O)NCc3ccccc3)cnn2-c2cccc(F)c2)CC1 -28.6%, COc1ccccc1-c1nc2n(n1)C(c1ccccc1Cl)C(C(=O)Nc1cccnc1)=C(C)N2 (stereo unspecified) -3.18%, CCCCn1cc(S(=O)(=O)c2ccc(C)cc2)c(=O)c2cc(F)c(N3CCCCC3)cc21 -8.81%, CCOc1ccccc1NC(=O)CSc1nnc2[nH]c(=O)cc(C)n12 -10.7%, Cc1cc(O)c(C(c2ccccc2)N2CCCCC2)c(=O)n1Cc1ccco1 (stereo unspecified) 5.88%, CCSc1nn(CC(=O)Nc2cccc(CC)c2)c(N)c1S(=O)(=O)c1ccccc1 -45.1%, COCCCNC(=O)C1CCN(Cc2cc3ccccc3n2Cc2ccccc2C)CC1 -25.2%, Cc1oc(-c2ccc(Cl)cc2)nc1CN1CCCC(C(=O)NCCc2ccc(Cl)cc2)C1 (stereo unspecified) -53.5%, Cc1ccc(S(=O)(=O)c2c(O)cc(C)c(NS(=O)(=O)c3ccc(Br)cc3)c2C)cc1 -33%, Cc1ccc(-c2nc3c(c(SCc4ccc(Br)cc4)n2)Cc2c(CO)cnc(C)c2O3)cc1 22.1%, CC(=O)OCC(COC(C)=O)OC(C)=O -5.1%, O=C(CSc1nc2c([nH]c3ccccc32)c(=O)n1-c1ccc(Cl)cc1)N1CCc2ccccc21 -10.1%, CSc1cccc(NC(=O)c2cnn(-c3ccc(F)cc3)c2-n2cccc2)c1 -6.43%, COc1ccc(CCNC(=O)CCc2c(C)c3cc4c(C)c(C)oc4cc3oc2=O)cc1OC -6.17%, O=C(Cn1ncn2c(cc3sccc32)c1=O)NCCc1ccccc1 -2.9%, Cc1ccc2c(=O)cc(C(=O)Nc3ccc(S(=O)(=O)N(C)c4ccccc4)cc3)oc2c1C -3.06%, Cc1ccc(CN2CCC(CNC(=O)c3cnn(-c4ccccc4Cl)c3C3CCN(C(=O)OC(C)(C)C)CC3)CC2)cc1 -34.9%, COc1cc(/C=C/c2nc(C#N)c(N3CCN(C)CC3)o2)cc(OC)c1OC -15.3%, COc1cccc(NS(=O)(=O)c2ccc3c(c2)n(C)c(=O)n3C)c1 -33.1%, COc1ccc(NC(=O)COCc2cc(-c3ccc4c(c3)OCO4)on2)cc1 19.7%, CN(C(=O)c1ccc2c(c1)N(Cc1cccc(Cl)c1)C(=O)c1ccccc1S2(=O)=O)C1CCCCC1 -30.5%, Cc1ccc(Cn2c(SCc3ccc(C(=O)NC4CCCCC4)cc3)nc3ccncc32)cc1 -33.2%, CSc1cccc(NC(=O)C2CCN(c3nc4ccccc4[nH]3)CC2)c1 -5.4%, COc1ccc(Cl)c2sc(NC(=O)c3ccc(S(=O)(=O)N4CCOCC4)cc3)nc12 -16.8%, CCc1ccc(NC(=O)Cn2c(=O)n(-c3ccc(Cl)c(Cl)c3)c(=O)c3c(C)c(C)sc32)cc1 7.32%, COc1ccc(NC(=O)c2c(NCc3cccs3)sc3c2CCC(C)C3)c(OC)c1 (stereo unspecified) -15.9%, O=C(CSc1nnc(-c2ccccc2Cl)o1)N1CCCc2ccccc21 -18%, CCCCCN(CCCOC)C(=O)C(CCC(=O)O)NC(=O)c1ccc(Cl)c(Cl)c1 (stereo unspecified) -6.31%, Cc1c(C(=O)N(Cc2ccccc2F)C2CCS(=O)(=O)C2)oc2ccccc12 (stereo unspecified) -11.7%, Cc1nn(C)c2c1c(C(F)(F)F)cc(=O)n2C(C)C(=O)Nc1ccccc1F (stereo unspecified) -43.1%, CCOc1ccc(C(=O)c2cn(CC(=O)Nc3ccc(Cl)cc3)c3cc4c(cc3c2=O)OCO4)cc1 -32.3%, COc1ccc(S(=O)(=O)NCC(c2cccs2)S(=O)(=O)c2ccccc2)cc1OC (stereo unspecified) 0.981%, COc1ccc(-c2nnc(SCC(=O)Nc3cccc(C(F)(F)F)c3)s2)cc1 -10.7%, CC(=O)N1CCc2cc(Br)cc(S(=O)(=O)CCC(=O)N3CCN(c4ccc(F)cc4)CC3)c21 -26.9%, Cc1ccc(NC(=O)Nc2cc(C(F)(F)F)ccc2F)cc1Nc1ccc2c(c1)NC(=O)C2=Cc1ccc[nH]1 -37.2%, CN1CC[C@H](c2c(O)cc(O)c3c(=O)cc(-c4ccccc4Cl)oc23)[C@H](O)C1 -35%, COc1ccc(CC(=O)NCc2ccc3c(c2)CCN3C(=O)c2ccccc2)cc1OC -6.89%, COc1ccc(C2=NC(c3ccncc3)=Nc3ccc(Br)cc3N2)cc1 -19.1%, CCn1cc(C(=O)N2CCN(c3ccc(F)cc3)CC2)c(=O)c2cc(S(=O)(=O)N(C)C3CCCCC3)ccc21 -1.52%, CCOC(=O)C1=C(CN2CCCCC2)NC(=O)NC1c1cc(C)ccc1C (stereo unspecified) 4.61%, COc1ccccc1N1CCN(C(CNC(=O)C(=O)NCc2ccc(C)cc2)c2cccnc2)CC1 (stereo unspecified) -57.5%, CC(C)(C)c1ccc(OCCn2cc(C(=O)c3ccco3)c3ccccc32)cc1 -26.9%, CCc1cccc(NC(=O)C2CCCN(S(=O)(=O)c3cccs3)C2)c1 (stereo unspecified) -19.7%, CCCC(CCC)C(=O)Nc1cc(-c2cn3cccnc3n2)ccc1OC -11.4%, CCc1ccc(N2C(=O)CSC23C(=O)N(Cc2ccc(C)cc2)c2ccccc23)cc1 (stereo unspecified) -37.4%, Cc1oc(-c2cccc(Cl)c2)nc1CN1CCC(C(=O)NCCCN2CCN(c3ccc(F)cc3)CC2)CC1 -45.8%, O=C(CSc1nc2c(c(=O)[nH]1)CCC2)Nc1ccccc1C(F)(F)F -11.1%, COc1ccc(S(=O)(=O)c2c(C)c(NS(=O)(=O)c3ccccc3)cc(C)c2O)cc1 -21.7%, COc1ccc(Cn2cc(C(=O)c3ccc(C)cc3)c(=O)c3cc(OC)c(OC)cc32)cc1 -7.62%, O=C(NCN1CCOCC1)c1cnccn1 -6.21%, O=C(c1ccc2c(c1)CCCC2)N1CCN(c2nc3c(F)cccc3s2)CC1 -2.59%, COc1cc(C(c2c(C)[nH][nH]c2=O)c2c(C)[nH][nH]c2=O)ccc1OC(=O)c1cccc(C)c1 -5.8%, CCn1cc(C(=O)NCc2ccccc2)c(=O)c2cc(S(=O)(=O)N3CCc4ccccc4C3)ccc21 -27.4%, CCOC(=O)C1CCCCN1S(=O)(=O)c1csc(C(N)=O)c1 (stereo unspecified) -24.1%, CCCCOc1ccc(CN2C(=O)C(=O)c3cc(Br)cc(C)c32)cc1OC -44.7%, CCOc1ccccc1CNC(=O)C1CCCN(c2ncnc3onc(-c4ccc(F)cc4)c23)C1 (stereo unspecified) -15.2%, Cc1ccc(CN2CCc3nc(N4CCN(c5ccccc5F)CC4)ncc3C2)cc1C -22.1%, Cc1cccc(C)c1-n1ncc(C(=O)Nc2ccc3c(c2)OCO3)c1C1CCN(C(=O)OC(C)(C)C)CC1 7.02%, COc1cccc(-c2cc(C(F)(F)F)nc(NCCc3ccccc3)n2)c1 -3.83%, COc1ccccc1CCNC(=O)c1ccc2c(c1)c(C)c(C)n2Cc1ccc(Cl)cc1 -19.8%, O=C(NCc1ccccc1Cl)C1CCCN(C(=O)c2cnn(-c3ccccc3)c2-n2cccc2)C1 (stereo unspecified) -35.8%, O=C(O)Cn1c(=O)n(Cc2ccc(Br)cc2F)c(=O)c2ccc(Cl)cc21 -3.86%

Source: PubChem BioAssay AID1508624 (National Center for Advancing Translational Sciences (NCATS), 2021)
